IC50 is the fitted dose that halves viability relative to control wells, and lower means more sensitive; where the fit passes the top or lowest dose, that dose stands as a limit. AUC sums up the same curve from the lowest dose to the 256-fold higher top dose; values near 1 show little effect. For some of these results: A top dose marked as inferred was calculated from the reported fits. For some of these results: Drugs with an entry number were screened twice under separate entries, and the two screens often disagree.
How the values were obtained:
Experiment in all cases: Viability of human cancer cell lines after 72 h of drug (GDSC screen)
MP470 = compound: S=C(NCc1ccc2c(c1)OCO2)N1CCN(c2ncnc3c2oc2ccccc23)CC1 [MP470]; details: top dose 20 µM; top dose inferred
Protocol: (§1)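 Human cancer cell lines in 384-well plates, medium with 10% serum, drug for 72 h over a 256-fold dose range (nine 2-fold or five 4-fold steps up to the top dose). Adherent lines were fixed and stained with the nucleic acid dye Syto60, suspension lines read with resazurin; signal relative to control wells, capped at 0 and 100%. One two-parameter sigmoid per drug and line, fitted in a mixed model over all curves with the slope shared within a line.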

LFM-A13 = compound: C/C(O)=C(\C#N)C(=O)Nc1cc(Br)ccc1Br [LFM-A13]; details: top dose 16 µM; top dose inferred
Protocol: as §1

AUY922 = compound: CCNC(=O)c1noc(-c2cc(C(C)C)c(O)cc2O)c1-c1ccc(CN2CCOCC2)cc1 [AUY922]; details: top dose 0.256 µM; top dose inferred
Protocol: as §1

GNF-2 = compound: NC(=O)c1cccc(-c2cc(Nc3ccc(OC(F)(F)F)cc3)ncn2)c1 [GNF-2]; details: top dose 1.28 µM; top dose inferred
Protocol: as §1

Bicalutamide = compound: CC(O)(CS(=O)(=O)c1ccc(F)cc1)C(=O)Nc1ccc(C#N)c(C(F)(F)F)c1 [Bicalutamide]; details: top dose inferred
Protocol: as §1

TW-37 = compound: CC(C)c1ccccc1Cc1cc(C(=O)Nc2ccc(S(=O)(=O)c3ccccc3C(C)(C)C)cc2)c(O)c(O)c1O [TW-37]; details: top dose 5 µM
Protocol: as §1

T0901317 = compound: O=S(=O)(c1ccccc1)N(CC(F)(F)F)c1ccc(C(O)(C(F)(F)F)C(F)(F)F)cc1 [T0901317]; details: top dose 10.24 µM; top dose inferred
Protocol: as §1

Nilotinib = compound: Cc1cn(-c2cc(NC(=O)c3ccc(C)c(Nc4nccc(-c5cccnc5)n4)c3)cc(C(F)(F)F)c2)cn1 [Nilotinib]; details: top dose 2 µM
Protocol: as §1

KIN001-270 = compound: Cc1ccc(Nc2cc(-c3cccc(N4C(=O)c5ccccc5C4=O)c3)ncn2)cc1NS(C)(=O)=O [KIN001-270]; details: top dose 20 µM; top dose inferred
Protocol: as §1

Gemcitabine = compound: Nc1ccn([C@@H]2O[C@H](CO)[C@@H](O)C2(F)F)c(=O)n1 [Gemcitabine]; details: top dose 1.024 µM
Protocol: as §1

[1] = top dose 1.024 µM, screen: GDSC drug entry 150
[2] = top dose 10 µM, screen: GDSC drug entry 1502

| Cell Line | AUC (MP470) | IC50 (MP470) | AUC (LFM-A13) | IC50 (LFM-A13) | AUC (AUY922) | IC50 (AUY922) | AUC (GNF-2) | IC50 (GNF-2) | AUC (Bicalutamide; [1]) | IC50 (Bicalutamide; [1]) | AUC (Bicalutamide; [2]) | IC50 (Bicalutamide; [2]) | AUC (TW-37) | IC50 (TW-37) | AUC (T0901317) | IC50 (T0901317) | AUC (Nilotinib) | IC50 (Nilotinib) | AUC (KIN001-270) | IC50 (KIN001-270) | AUC (Gemcitabine) | IC50 (Gemcitabine) |
| --- | --- | --- | --- | --- | --- | --- | --- | --- | --- | --- | --- | --- | --- | --- | --- | --- | --- | --- | --- | --- | --- | --- |
| SK-LMS-1 (soft tissue, adherent) | 0.942 | > 20 µM | 0.94 | > 16 µM | 0.411 | 0.00924 µM | 0.986 | > 1.28 µM | 0.987 | > 1.02 µM | 0.967 | > 10 µM | 0.329 | 0.107 µM | 0.942 | > 10.2 µM | 0.987 | > 2 µM | 0.9 | > 20 µM |  |  |
| SU-DHL-8 (B-cell lymphoma, suspension) | 0.868 | 16.2 µM | 0.912 | > 16 µM | 0.564 | 0.0236 µM | 0.974 | > 1.28 µM | 0.977 | > 1.02 µM | 0.979 | > 10 µM | 0.658 | 0.828 µM | 0.445 | 0.458 µM |  |  | 0.91 | > 20 µM | 0.17 | 0.007 µM |
| SW872 (soft tissue, adherent) | 0.921 | > 20 µM | 0.966 | > 16 µM | 0.57 | 0.0243 µM | 0.967 | > 1.28 µM | 0.986 | > 1.02 µM | 0.981 | > 10 µM | 0.349 | 0.125 µM | 0.978 | > 10.2 µM |  |  | 0.976 | > 20 µM | 0.102 | < 0.004 µM |
| TC-71 (Ewing sarcoma, adherent) | 0.792 | 7.4 µM | 0.989 | > 16 µM | 0.869 | 0.172 µM | 0.992 | > 1.28 µM | 0.992 | > 1.02 µM | 0.971 | > 10 µM | 0.47 | 0.262 µM | 0.943 | > 10.2 µM |  |  | 0.874 | 14 µM | 0.407 | 0.0373 µM |
| TE-10 (oesophagus, adherent) | 0.98 | > 20 µM | 0.984 | > 16 µM | 0.542 | 0.0208 µM | 0.944 | > 1.28 µM | 0.988 | > 1.02 µM | 0.981 | > 10 µM | 0.697 | 1.1 µM | 0.986 | > 10.2 µM |  |  | 0.958 | > 20 µM | 0.327 | 0.0213 µM |
| TGBC24TKB (biliary tract, adherent) | 0.917 | > 20 µM | 0.989 | > 16 µM | 0.987 | > 0.256 µM | 0.981 | > 1.28 µM | 0.986 | > 1.02 µM | 0.982 | > 10 µM | 0.525 | 0.364 µM | 0.985 | > 10.2 µM |  |  | 0.976 | > 20 µM | 0.844 | 0.661 µM |
| VCaP (prostate, adherent) | 0.926 | > 20 µM | 0.981 | > 16 µM | 0.753 | 0.0883 µM | 0.987 | > 1.28 µM |  |  |  |  | 0.708 | 1.24 µM | 0.987 | > 10.2 µM | 0.987 | > 2 µM | 0.987 | > 20 µM |  |  |

— the supplement of paper PMC4967469
